24 compounds from publication PMC4336329 (PLoS ONE, 2015) can be followed below.

Among all 310,000 compounds or so, about 2,200 (0.71%) showed an effect of 50% or more. The effect is printed as a negative number. This is one part of the list.

The target in this experiment is human ether-à-go-go-related gene (hERG) potassium channel (human, UniProt Q12809). The experiment in a line: primary screen, population patch clamp on CHO cells stably expressing hERG.
Chain of human ether-à-go-go-related gene (hERG) potassium channel (Q12809 whole entry, looked up): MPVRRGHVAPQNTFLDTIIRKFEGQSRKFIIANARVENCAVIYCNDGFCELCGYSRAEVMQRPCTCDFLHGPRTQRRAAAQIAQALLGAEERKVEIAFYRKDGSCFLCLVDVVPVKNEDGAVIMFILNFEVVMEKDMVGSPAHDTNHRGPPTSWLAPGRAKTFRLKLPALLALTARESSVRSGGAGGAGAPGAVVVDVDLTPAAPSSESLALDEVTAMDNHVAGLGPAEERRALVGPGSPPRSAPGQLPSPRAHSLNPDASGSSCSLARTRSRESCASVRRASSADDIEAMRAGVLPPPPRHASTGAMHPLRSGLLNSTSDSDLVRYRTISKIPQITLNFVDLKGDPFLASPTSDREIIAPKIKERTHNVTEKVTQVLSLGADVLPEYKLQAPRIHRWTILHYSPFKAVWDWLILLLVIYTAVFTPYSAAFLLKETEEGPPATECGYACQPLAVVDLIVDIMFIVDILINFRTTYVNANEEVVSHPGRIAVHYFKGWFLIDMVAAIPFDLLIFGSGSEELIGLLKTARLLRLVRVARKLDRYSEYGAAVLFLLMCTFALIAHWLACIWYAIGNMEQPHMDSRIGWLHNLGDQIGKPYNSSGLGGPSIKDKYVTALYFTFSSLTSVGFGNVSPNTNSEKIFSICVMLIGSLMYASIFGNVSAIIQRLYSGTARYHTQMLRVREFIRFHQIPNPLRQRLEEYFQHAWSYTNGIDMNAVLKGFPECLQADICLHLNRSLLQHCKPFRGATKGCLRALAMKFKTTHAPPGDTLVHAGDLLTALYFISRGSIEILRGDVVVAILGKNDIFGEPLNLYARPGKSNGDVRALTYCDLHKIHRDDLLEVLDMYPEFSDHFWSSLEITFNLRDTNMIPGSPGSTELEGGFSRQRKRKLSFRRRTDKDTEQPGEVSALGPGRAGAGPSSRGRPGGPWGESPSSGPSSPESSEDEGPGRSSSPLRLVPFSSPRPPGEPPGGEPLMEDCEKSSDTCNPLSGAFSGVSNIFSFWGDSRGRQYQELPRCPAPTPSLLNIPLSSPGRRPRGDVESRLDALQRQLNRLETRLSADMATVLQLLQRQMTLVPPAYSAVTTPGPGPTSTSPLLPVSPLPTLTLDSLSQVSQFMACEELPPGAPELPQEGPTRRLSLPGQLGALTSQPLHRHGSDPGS
Regarding `CC(OC(=O)c1nc(Cl)ccc1Cl)C(=O)Nc1ccc2c(c1)OCCO2` (stereo not drawn), the “hERG current change (%, negative = inhibition) at 1uM” value is given as 10.9%.

`COc1ccc(C2CC(=O)N(CC(=O)NCC3CCCO3)c3ccccc3S2)cc1OC` (stereo not drawn): the “hERG current change (%, negative = inhibition) at 1uM” value was 3.16%.

Turning to `Cn1cccc1-c1cc(C(=O)N2CCc3c([nH]c4ccccc34)C2c2ccccn2)[nH]n1` (stereo not drawn), the “hERG current change (%, negative = inhibition) at 1uM” value amounted to 10.3%.

With `COc1cccc(-c2c(C(=O)N/N=C/c3cccs3)nnn2-c2nonc2N)c1`, the “hERG current change (%, negative = inhibition) at 1uM” value is listed as 20.7%.

For `C/C(Cl)=C\CSc1nnc2n(N)c(=O)c3ccccc3n12`, the “hERG current change (%, negative = inhibition) at 1uM” value is -5.55%.

For `O=[N+]([O-])c1cc(-n2cnnn2)ccc1N1CCC(Cc2ccccc2)CC1`, the “hERG current change (%, negative = inhibition) at 1uM” value is reported as -10.1%.

Take `Cc1[nH]n(-c2cccc(Cl)c2)c(=O)c1/C=N/n1c(C)nc2ccccc2c1=O`: the “hERG current change (%, negative = inhibition) at 1uM” value is 18.4%.

On to `CCNC(=S)NNC(=O)c1cc(-c2ccccc2C)nc2ccccc12`, for which the “hERG current change (%, negative = inhibition) at 1uM” value was determined as 8.44%.

As for `O=C(NCC1CCCCC1)c1cc(S(=O)(=O)N2CCCCC2)ccc1N1CCOCC1`, the “hERG current change (%, negative = inhibition) at 1uM” value was found to be 9.63%.

Regarding `c1csc(-c2nn3c(C4COc5ccccc5O4)nnc3s2)c1` (stereo not drawn), the “hERG current change (%, negative = inhibition) at 1uM” value is 16.5%.

On to `O=C(CNS(=O)(=O)c1ccc(Br)s1)NCc1ccc2c(c1)OCO2`, for which the “hERG current change (%, negative = inhibition) at 1uM” value is -27.3%.

As for `S=c1[nH]nc(-c2ccccn2)n1/N=C/c1ccc(Cl)c(Cl)c1`, the “hERG current change (%, negative = inhibition) at 1uM” value was found to be 6.06%.

Turning to `COc1ccc(C2N(c3ccc(Cl)cc3)N=C(C(C)=O)N(C)N2C(C)=O)cc1` (stereo not drawn), the “hERG current change (%, negative = inhibition) at 1uM” value is given as 11.8%.

With `O=Cc1c[nH]c2ncccc12`, the “hERG current change (%, negative = inhibition) at 1uM” value is 11.9%.

For `CCN1CCN(C(=O)c2ccccc2N(Cc2ccccc2)S(C)(=O)=O)CC1`, the “hERG current change (%, negative = inhibition) at 1uM” value is 7.94%.

Regarding `CC(C)C(c1nnnn1Cc1ccc(F)cc1)N1CCN(c2ccc(O)cc2)CC1` (stereo not drawn), the “hERG current change (%, negative = inhibition) at 1uM” value is recorded as -11.8%.

In the case of `C[C@@H](NC(=O)c1nc[nH]c1C(=O)OCc1ccccc1)c1ccccc1`, the “hERG current change (%, negative = inhibition) at 1uM” value came to 11%.

As to `O=c1[nH][nH]cc1C=Nc1ccc(Cl)cc1Cl`, the “hERG current change (%, negative = inhibition) at 1uM” value is on record as 12%.

Take `COCCCNc1ncnc2c1sc1nc(-c3ccco3)c3c(c12)CC(C)(C)OC3`: the “hERG current change (%, negative = inhibition) at 1uM” value is 13.5%.

Turning to `O=C(CNc1cccc2ccccc12)N/N=C/c1ccccn1`, the “hERG current change (%, negative = inhibition) at 1uM” value was found to be 3.94%.

On to `Cc1ccc(S(=O)(=O)N2CCOCC2)cc1C(=O)Nc1nc(-c2cccnc2)cs1`, for which the “hERG current change (%, negative = inhibition) at 1uM” value is on record as 13.9%.

With `CCc1ccc(-c2ccc(SCC(=O)NCC3CCCO3)nn2)cc1` (stereo not drawn), the “hERG current change (%, negative = inhibition) at 1uM” value is reported as -4.6%.

With `CCOc1ccc(/C(O)=C2\C(=O)C(=O)N(c3cc(C)on3)C2c2ccccc2OC)cc1` (stereo not drawn), the “hERG current change (%, negative = inhibition) at 1uM” value stood at 8.91%.

Turning to `CCCCc1n[nH]c(=S)n1Cc1ccccc1`, the “hERG current change (%, negative = inhibition) at 1uM” value came to 9.44%.
